Data taken from the supplement of paper PMC9151546.
Repeats are few or missing, and single values can be far off.

What was measured:
[1] = tested on: CHO-K1; assay: micronucleus frequency (% of nucleated events); higher = more micronuclei (genotoxic)
[2] = tested on: CHO-K1; assay: hypodiploid nuclei frequency (% of nucleated events); higher = more hypodiploid events (aneugenic)
[3] = tested on: CHO-K1; assay: relative survival (nuclei to bead ratio vs DMSO control) (% of vehicle control); higher = more surviving cells
Experimental: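 Flow-cytometric in vitro micronucleus assay (Litron MicroFlow) in CHO-K1 cells in 96-well plates, 19 concentrations (4.5-200 µM, n=1 per concentration). Without S9, cells were exposed for 24 h and sampled at 48 h. With Aroclor 1254-induced rat liver S9, cells were exposed for 3-4 h and sampled at 27-28 h. Read-outs are %MN and %hypodiploid nuclei relative to nucleated events, and relative survival as the nuclei-to-bead ratio versus the 1% DMSO vehicle control (x100).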
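Wherever hypodiploid nuclei frequency (% of nucleated events) is given: hypodiploid nuclei gated on a flow cytometer with 488 nm excitation after SYTOX Green staining, cultures at 37 °C, positive controls vinblastine without S9 and cyclophosphamide with S9.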
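Wherever micronucleus frequency (% of nucleated events) is given: cells lysed with nuclei stained by SYTOX Green, then micronucleus-gated events counted against nucleated events by flow cytometry with 488 nm excitation.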
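Wherever relative survival (nuclei to bead ratio vs DMSO control) is given: Lysed-cell nuclei stained with SYTOX Green and counted against counting beads by flow cytometry at 488 nm excitation, with vinblastine (no S9) and cyclophosphamide (plus S9) as positive controls.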

CC(O)CO (stereo not drawn) [1,2-Propylene glycol]
Conditions	hypodiploid nuclei frequency, [2] [%]	micronucleus frequency, [1] [%]	relative survival, [3]
concentration: 4.44 (µM), S9 metabolic activation: with S9, exposure time: 3-4 hours	0.33	1.26	65.5
concentration: 4.44 (µM), S9 metabolic activation: without S9, exposure time: 24 hours	0.54	0.76	85
concentration: 5.55 (µM), S9 metabolic activation: with S9, exposure time: 3-4 hours	0.22	0.95	75.1
concentration: 5.55 (µM), S9 metabolic activation: without S9, exposure time: 24 hours	0.56	1.22	81.3
concentration: 6.93 (µM), S9 metabolic activation: with S9, exposure time: 3-4 hours	0.14	1	99.3
concentration: 6.93 (µM), S9 metabolic activation: without S9, exposure time: 24 hours	0.48	1	76.8
concentration: 8.66 (µM), S9 metabolic activation: with S9, exposure time: 3-4 hours	0.21	1.06	88.7
concentration: 8.66 (µM), S9 metabolic activation: without S9, exposure time: 24 hours	0.4	0.98	85
concentration: 10.8 (µM), S9 metabolic activation: with S9, exposure time: 3-4 hours	0.21	1.08	80.5
concentration: 10.8 (µM), S9 metabolic activation: without S9, exposure time: 24 hours	0.82	1.76	66.6
concentration: 13.5 (µM), S9 metabolic activation: with S9, exposure time: 3-4 hours	0.24	0.88	99.8
concentration: 13.5 (µM), S9 metabolic activation: without S9, exposure time: 24 hours	0.42	1.14	87.5
concentration: 16.9 (µM), S9 metabolic activation: with S9, exposure time: 3-4 hours	0.18	0.68	84.5
concentration: 16.9 (µM), S9 metabolic activation: without S9, exposure time: 24 hours	0.38	0.96	94.5
concentration: 21.2 (µM), S9 metabolic activation: with S9, exposure time: 3-4 hours	0.18	1.08	57.8
concentration: 21.2 (µM), S9 metabolic activation: without S9, exposure time: 24 hours	0.66	1.3	92.9
concentration: 26.4 (µM), S9 metabolic activation: with S9, exposure time: 3-4 hours	0.24	1.36	75.6
concentration: 26.4 (µM), S9 metabolic activation: without S9, exposure time: 24 hours	0.7	1.2	136
concentration: 33.1 (µM), S9 metabolic activation: with S9, exposure time: 3-4 hours	0.26	1.58	73.9
concentration: 33.1 (µM), S9 metabolic activation: without S9, exposure time: 24 hours	0.76	0.86	89.2
concentration: 41.3 (µM), S9 metabolic activation: with S9, exposure time: 3-4 hours	0.34	1.82	72.9
concentration: 41.3 (µM), S9 metabolic activation: without S9, exposure time: 24 hours	0.92	1.2	86.2
concentration: 51.6 (µM), S9 metabolic activation: with S9, exposure time: 3-4 hours	0.26	0.92	78
concentration: 51.6 (µM), S9 metabolic activation: without S9, exposure time: 24 hours	0.9	0.98	85
concentration: 64.6 (µM), S9 metabolic activation: with S9, exposure time: 3-4 hours	0.26	1.44	91.1
concentration: 64.6 (µM), S9 metabolic activation: without S9, exposure time: 24 hours	0.78	1.52	74.4
concentration: 80.7 (µM), S9 metabolic activation: with S9, exposure time: 3-4 hours	0.28	1.38	82
concentration: 80.7 (µM), S9 metabolic activation: without S9, exposure time: 24 hours	0.74	1.02	120
concentration: 101 (µM), S9 metabolic activation: with S9, exposure time: 3-4 hours	0.2	1.58	99.8
concentration: 101 (µM), S9 metabolic activation: without S9, exposure time: 24 hours	1.08	1.2	92.6
concentration: 126 (µM), S9 metabolic activation: with S9, exposure time: 3-4 hours	0.25	1.3	88
concentration: 126 (µM), S9 metabolic activation: without S9, exposure time: 24 hours	0.92	1.24	142
concentration: 158 (µM), S9 metabolic activation: with S9, exposure time: 3-4 hours	0.19	0.74	73.1
concentration: 158 (µM), S9 metabolic activation: without S9, exposure time: 24 hours	0.98	1.92	114
concentration: 197 (µM), S9 metabolic activation: with S9, exposure time: 3-4 hours	0.25	1.83	81.3
concentration: 197 (µM), S9 metabolic activation: without S9, exposure time: 24 hours	1.6	2.22	87.8
